Measurements taken from the supplement of paper PMC12645437, “Orthogonal IMiD-Degron Pairs Induce Selective Protein Degradation in Cells” (ACS Chemical Biology, 2025).
This is one part of the list.
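Also: jurkat cells carrying a lentiviral library of mutant zinc finger degrons fused to EGFP plus mCherry, mCherry+ cells FACS sorted, degron abundance counted by next-generation sequencing.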

These sequences were tested against no compound (DMSO) (assay: log2 fold change of degron read counts, EGFP-low vs EGFP+ sorted cells; higher = lower degron-EGFP level without compound (poor expression or instability)). Conditions: compound: DMSO control; 18 h.
With LWCEICGFSCTQKGNLLRHIKL the “log2 fold change of degron read counts” value was 1.15. In the case of FLCPICGAMFTQKGNLLRHIKL, the “log2 fold change of degron read counts” value is reported as 0.238. In the case of FTCEICGRDFTQKGNLLRHIKL, the “log2 fold change of degron read counts” value is reported as -2.35. For FFCEICGAMFTQKGNLLRHIKL, the “log2 fold change of degron read counts” value was 0.00164. With LICEICGFSCTQKGNLLRHIKL the “log2 fold change of degron read counts” value was -0.104. With FVCNQCGHSFTQKGNLLRHIKL the “log2 fold change of degron read counts” value was -1.4. With FLCDICGATFTQKGNLLRHIKL the “log2 fold change of degron read counts” value was -1.26. For FKCEICGAPFTQKGNLLRHIKL, the “log2 fold change of degron read counts” value was -0.875. FECEVCGADFTQKGNLLRHIKL was tested, and the “log2 fold change of degron read counts” value was -2.63. For FQCEVCGARFTQKGNLLRHIKL, the “log2 fold change of degron read counts” value was -0.727. In the case of FKCPICGRLFTQKGNLLRHIKL, the “log2 fold change of degron read counts” value is reported as -0.109. FNCPICGAWFTQKGNLLRHIKL was tested, and the “log2 fold change of degron read counts” value was 0.275. For FMCPVCGAYFTQKGNLLRHIKL, the “log2 fold change of degron read counts” value was 0.589. FHCPICGRSFTQKGNLLRHIKL was tested, and the “log2 fold change of degron read counts” value was -2. FQCPICGAYFTQKGNLLRHIKL was tested, and the “log2 fold change of degron read counts” value was 0.359. With FFCDVCGADFTQKGNLLRHIKL the “log2 fold change of degron read counts” value was -1.89. In the case of FRCPICGHWFTQKGNLLRHIKL, the “log2 fold change of degron read counts” value is reported as 0.775. LCCNQCGFYCTQKGNLLRHIKL was tested, and the “log2 fold change of degron read counts” value was 1.19. FLCPVCGAIFTQKGNLLRHIKL was tested, and the “log2 fold change of degron read counts” value was 0.643. For FVCEQCGAVFTQKGNLLRHIKL, the “log2 fold change of degron read counts” value was -1.49. For FTCNQCGRQFTQKGNLLRHIKL, the “log2 fold change of degron read counts” value was -1.51. For FCCEQCGAIFTQKGNLLRHIKL, the “log2 fold change of degron read counts” value was -0.633. For FACEICGRDFTQKGNLLRHIKL, the “log2 fold change of degron read counts” value was -1.42. FWCEICGALFTQKGNLLRHIKL was tested, and the “log2 fold change of degron read counts” value was 0.611. FTCNQCGHQFTQKGNLLRHIKL was tested, and the “log2 fold change of degron read counts” value was -0.547. In the case of FICDVCGALFTQKGNLLRHIKL, the “log2 fold change of degron read counts” value is reported as -0.335. FYCNVCGATFTQKGNLLRHIKL was tested, and the “log2 fold change of degron read counts” value was -1.05. For FDCNVCGAKFTQKGNLLRHIKL, the “log2 fold change of degron read counts” value was -1.21. LMCNQCGFSCTQKGNLLRHIKL was tested, and the “log2 fold change of degron read counts” value was -0.04. With FQCEICGAYFTQKGNLLRHIKL the “log2 fold change of degron read counts” value was -1.09. With FFCSVCGHSFTQKGNLLRHIKL the “log2 fold change of degron read counts” value was 0.404. In the case of FYCPQCGAAFTQKGNLLRHIKL, the “log2 fold change of degron read counts” value is reported as -0.211.
